1 substance from FireProtDB (doi:10.1016/j.bbalip.2010.10.003) can be followed below.

Several values for one entry are separate records, joined by “and”; a condition that tells them apart may be missing. Identical values can stand only once.

The conditions of this series: Homo sapiens; pH 7.4; 25 °C; GdnHCl; Fluorescence; Phosphate buffer; transition: 2.

Regarding “Apolipoprotein A-I wild type (no sequence given)”, the denaturant m value is 3 kcal/mol/M and 3.2 kcal/mol/M; the “denaturant midpoint (higher = more stable)” value turned out to be 1.05 M; the unfolding free energy was 3.1 kcal/mol and 3.4 kcal/mol.
